“And” between values parts separate entries of the source, which are not always exact repeats. Equal entries are not always repeated. The inconclusive results got no clear call from the source; some entries with a clear call stand among them for comparison. For some of these results: A potency beside an inconclusive call is a rough fit, not a confirmed value. The source made the active and inactive calls. Calls come from the whole dose curve; as a rule, active = well fitted curve in the direction sought with a large enough effect; inconclusive = small, poorly fitted or top-dose-only effect, or another doubt; inactive = no such curve, though single readings can be large; an effect the other way counts as inactive or inconclusive.
How the values were obtained:
HaCat = assay: Cytotoxic Profiling of Annotated Libraries Using Quantitative High-Throughput Screening (AID 1296008); conditions: Five cell lines viability, CellTiter-Glo ATP luminescence, 48-72 h; max response: hits give low values; note: nearly all actives have a fitted effect of over 60% in size; note: potency is the fitted concentration of half-maximal effect; for max response: % is set by controls: 0 for no effect and ±100 for the full control effect
Method in brief: (§1)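 Cytotoxicity was measured as CellTiter-Glo ATP luminescence, read after 10 min at room temperature. Compound treatment of the cells lasted 48 or 72 hr at 37 degrees Celsius in a qHTS format.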

NIH3T3 = assay: as above; conditions: Five cell lines viability, CellTiter-Glo ATP luminescence, 48-72 h; max response: hits give low values
Method in brief: as §1

KB-3-1 = assay: as above; conditions: Five cell lines viability, CellTiter-Glo ATP luminescence, 48-72 h; max response: hits give low values
Method in brief: as §1

[1] = qHTS assay to identify inhibitors of the type 1 interferon - major histocompatibility complex class I in skeletal muscle: Counter screen cell viability and HiBit confirmation (AID 1347412); conditions: iHSKM muscle cells + IFN-b, HiBiT or CellTiter-Glo, 24 h, at 45.9 µM (top of the series); note: % is set by controls: 0 for no effect and ±100 for the full control effect; nearly all actives have a fitted effect of over 60% in size
Method in brief: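 CRISPR HLA-B*08:01-HiBit immortalized human myoblasts (C25cl48) stimulated with 4 ng/ml IFN-beta and compounds (12-point 1:3, top 46 uM final) for 24 h at 37 C. Duplicate plates read by HiBit lytic luminescence or CellTiter Glo ATP.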

astro = assay: Drug repurposing screens with cells derived from glioblastoma tumor samples (AID 1345199); conditions: viability, ATP luminescence, 48 h; activity, negative = cell killing: at 45.9 µM (top of the series) unless noted; note: potency is the fitted concentration of half-maximal effect; nearly all actives have a fitted effect of over 40% in size
Method in brief: (§2)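 Primary testing used CD133+ neurospheres from four GBM patients, seven concentrations, 48 h exposure and ATP-based viability; confirmation added three slower-growing patient lines.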

[2] = as above; conditions: GBM patient neurospheres viability, ATP luminescence, 48 h; Potency: tumour line A unless noted; series mostly up to 46 µM
Method in brief: as §2

AA1029 = assay: qHTS profiling for inhibitors of Plasmodium falciparum proliferation (AID 504749); note: potency is the fitted concentration of half-maximal effect; nearly all actives have a fitted effect of over 60% in size; conditions: P. falciparum in erythrocytes, SYBR Green DNA, 72 h; series mostly up to 28.7 µM
Method in brief: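 SYBR Green fluorescence of parasite DNA, read after lysis and overnight dark incubation, measured growth over 72 h in erythrocyte culture at 0.3% parasitemia and 2.5% hematocrit. Data normalised to DMSO and 0.29 uM artemisinin, with plate-drift correction.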
Tags give direction and shape of the fitted curve.

For COc1ccc(N(C(=O)Oc2c(C)cccc2C)c2ccnc(Nc3ccc(N4CCN(C)CC4)cc3)n2)c(OC)c1, the Potency (HaCat) was inconclusive: 37.2 µM [inhibitor, single point] and inconclusive: 6.51 µM [inhibitor, full curve] and the Potency (NIH3T3) was inconclusive: 1.3 µM [inhibitor, full curve, poor fit].
With C=C1C(=O)CC2OC2(C)CC2OC(=O)C(=C)C2C(O)C1OC(=O)/C(C)=C\C (stereo unspecified) the Potency (HaCat) was inconclusive: 20.2 µM [inhibitor, single point] and the Potency (NIH3T3) was inconclusive: 14.3 µM [inhibitor, single point].
In the case of C[C@H](Nc1ncnc2nc[nH]c12)c1nc2ccc(F)cc2c(=O)n1-c1ccccc1, the Potency (HaCat) is reported as inconclusive: 0.164 µM [inhibitor, full curve, poor fit], the max response (KB-3-1) is reported as inactive: -3.18% and the activity change, negative = inhibition ([1]; HiBiT) is reported as inactive: -23.7%. The activity change, negative = inhibition ([1]; Viability) was inactive: -19.3%.
In the case of CC(C)=CCC[C@]1(C)C=Cc2c(O)c3c(c(CC=C(C)C)c2O1)O[C@]12C(=C[C@@H]4CC1C(C)(C)O[C@@]2(C/C=C(/C)C(=O)O)C4=O)C3=O, the Potency (HaCat) is reported as active: 4.61 µM and the Potency (NIH3T3) is reported as active: 1.16 µM.
In the case of C=CCC1=C(C)C(OC(=O)C2C(C=C(C)C)C2(C)C)CC1=O (stereo unspecified), the outcome (HaCat) is reported as “inactive”, the Potency (NIH3T3) is reported as inconclusive: 43.3 µM [inhibitor, single point] and the Potency (astro) is reported as inconclusive: 20 µM [inhibitor, partial curve, poor fit].
With CCCCCCCCc1ccc(O)cc1 the Potency (HaCat) was active: 24.6 µM, the Potency (NIH3T3) was inconclusive: 39 µM [inhibitor, single point] and the Potency [2] was inconclusive: 25.1 µM [inhibitor, partial curve].
In the case of CC(=O)O[C@@H]1[C@@H](O)[C@H]2O[C@@H]3C=C(C)[C@@H](O)C[C@]3(CO)[C@]1(C)[C@]21CO1, the Potency (HaCat) is reported as active: 3.6 µM and the Potency (NIH3T3) is reported as active: 0.904 µM.
In the case of COc1ccc2c(C(=O)c3ccc(Cl)cc3)c(C)n(CC(=O)O)c2c1, the Potency (HaCat) is reported as inconclusive: 33.5 µM [inhibitor, single point], the max response (NIH3T3) is reported as inactive: -34.1% and the Potency [2] is reported as inconclusive: 22.4 µM [inhibitor, partial curve].
In the case of C[C@]12CC[C@@H]3c4ccc(OC(=O)N(CCCl)CCCl)cc4CC[C@H]3[C@@H]1CC[C@@H]2O, the Potency (HaCat) is reported as inconclusive: 29.9 µM [inhibitor, single point], the Potency (NIH3T3) is reported as inconclusive: 26.6 µM [inhibitor, single point] and the Potency (astro) is reported as inconclusive: 35.5 µM [inhibitor, partial curve].
With Clc1ccc(CO/N=C(\Cn2ccnc2)c2ccc(Cl)cc2Cl)c(Cl)c1 the Potency (HaCat) was inconclusive: 0.75 µM [inhibitor, full curve, poor fit], the Potency (NIH3T3) was inconclusive: 33.5 µM [inhibitor, single point] and the Potency [2] was active: 11.2 µM [tumour line D]. The Potency (astro) was inconclusive: 25.1 µM [inhibitor, partial curve, poor fit] and the Potency (AA1029) was active: 5.01 µM.
With C[C@]12CC[C@H](O)C[C@@H]1CC[C@@H]1[C@@H]2CC[C@]2(C)C(=O)CC[C@@H]12 the Potency (HaCat) was inconclusive: 2.31 µM [inhibitor, partial curve] and the max response (NIH3T3) was inactive: -0.109%.
With C=CCON=C(C[C@H]1O[C@@H]2O[C@]3(C)CC[C@@H]4[C@H](C)CC[C@@H]([C@H]1C)[C@@]24OO3)[C@H]1O[C@@H]2O[C@]3(C)CC[C@H]4[C@H](C)CC[C@@H]([C@@H]1C)[C@@]24OO3 the Potency (HaCat) was active: 2.96 µM and the Potency (NIH3T3) was inconclusive: 0.935 µM [inhibitor, full curve].
In the case of Fc1ccc(C(OCCN2CCN(CCCc3ccccc3)CC2)c2ccc(F)cc2)cc1, the Potency (HaCat) is reported as inconclusive: 29.9 µM [inhibitor, single point] and the Potency (NIH3T3) is reported as inconclusive: 37.2 µM [inhibitor, single point] and inconclusive: 33.5 µM [inhibitor, single point].
In the case of C=C1C[C@@H]2[C@H](CC[C@]3(C)C(=O)CC[C@@H]23)[C@@]2(C)C=CC(=O)C=C12, the Potency (HaCat) is reported as inconclusive: 33.5 µM [inhibitor, single point], the Potency (NIH3T3) is reported as inconclusive: 29.9 µM [inhibitor, single point] and the Potency [2] is reported as active: 12.6 µM.
In the case of N#Cc1ccc(N2CCN(C(=O)COc3ccc4[nH]cc(CCN)c4c3)CC2)cc1, the Potency (HaCat) is reported as inconclusive: 6.51 µM [inhibitor, full curve, poor fit] and the Potency (NIH3T3) is reported as inconclusive: 18.4 µM [inhibitor, single point].
For CC(C)C(=O)O[C@H]1[C@@H]2[C@H](C)C(=O)O[C@@H]2C[C@@H](C)[C@@H]2C=CC(=O)[C@]21C, the Potency (HaCat) was inconclusive: 20.2 µM [inhibitor, single point] and the Potency (NIH3T3) was inconclusive: 14.3 µM [inhibitor, single point].
For COc1cc(C(=O)N2CC[C@@H](O)[C@@H](N)C2)cc2nc(-c3cc4ccccc4n3CC3CC3)n(C)c12, the Potency (HaCat) was inconclusive: 29.5 µM [inhibitor, single point] and the Potency (NIH3T3) was inconclusive: 37.1 µM [inhibitor, single point].
In the case of C=C1[C@@H](C)[C@H]2[C@H](Cc3ccccc3)NC(=O)[C@]23OC(=O)/C=C/C(=O)CCC[C@@H](C)C/C=C/[C@H]3[C@@H]1O, the Potency (HaCat) is reported as active: 20.6 µM and the Potency (NIH3T3) is reported as active: 1.16 µM.

From PubChem BioAssay (NCATS)
